Publication PMC7588591
These are yes or no findings as the source states them, for the method shown. For part of these data: Binding seen in cells or lysates may run through a third protein. Some entries that bind do so weakly or less than the wild type. For part of these data: Where a sequence is shown, tags or fusion partners need not be part of it.

By UniProt entry, the sequences of proteins in these tests, tags left out.
UniProt Q7Z434: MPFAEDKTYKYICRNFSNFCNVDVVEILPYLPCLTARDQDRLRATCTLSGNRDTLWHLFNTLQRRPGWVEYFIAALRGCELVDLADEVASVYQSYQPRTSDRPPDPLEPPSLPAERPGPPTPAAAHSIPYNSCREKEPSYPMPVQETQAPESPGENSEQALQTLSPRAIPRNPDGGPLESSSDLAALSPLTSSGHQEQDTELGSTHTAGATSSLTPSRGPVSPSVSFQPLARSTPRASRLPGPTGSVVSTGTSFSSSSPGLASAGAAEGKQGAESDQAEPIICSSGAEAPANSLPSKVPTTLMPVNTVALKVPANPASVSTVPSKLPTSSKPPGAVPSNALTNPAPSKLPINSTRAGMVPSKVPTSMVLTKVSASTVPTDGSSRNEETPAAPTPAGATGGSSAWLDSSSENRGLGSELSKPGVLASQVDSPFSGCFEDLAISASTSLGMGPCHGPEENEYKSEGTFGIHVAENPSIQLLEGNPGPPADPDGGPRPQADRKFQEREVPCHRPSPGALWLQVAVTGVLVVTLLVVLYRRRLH

What was measured:
[1] = target: endogenous MAVS (human (endogenous in HEK293)) (UniProt Q7Z434); assay: co-IP
[2] = target: endogenous MAVS (human (endogenous in HEK293)) (UniProt Q7Z434); assay: semidenaturing detergent agarose gel electrophoresis (SDD-AGE)
[3] = target: T1, MDA5 (tagged, transfected) (UniProt Q9BYX4); assay: co-IP
T1 sequence: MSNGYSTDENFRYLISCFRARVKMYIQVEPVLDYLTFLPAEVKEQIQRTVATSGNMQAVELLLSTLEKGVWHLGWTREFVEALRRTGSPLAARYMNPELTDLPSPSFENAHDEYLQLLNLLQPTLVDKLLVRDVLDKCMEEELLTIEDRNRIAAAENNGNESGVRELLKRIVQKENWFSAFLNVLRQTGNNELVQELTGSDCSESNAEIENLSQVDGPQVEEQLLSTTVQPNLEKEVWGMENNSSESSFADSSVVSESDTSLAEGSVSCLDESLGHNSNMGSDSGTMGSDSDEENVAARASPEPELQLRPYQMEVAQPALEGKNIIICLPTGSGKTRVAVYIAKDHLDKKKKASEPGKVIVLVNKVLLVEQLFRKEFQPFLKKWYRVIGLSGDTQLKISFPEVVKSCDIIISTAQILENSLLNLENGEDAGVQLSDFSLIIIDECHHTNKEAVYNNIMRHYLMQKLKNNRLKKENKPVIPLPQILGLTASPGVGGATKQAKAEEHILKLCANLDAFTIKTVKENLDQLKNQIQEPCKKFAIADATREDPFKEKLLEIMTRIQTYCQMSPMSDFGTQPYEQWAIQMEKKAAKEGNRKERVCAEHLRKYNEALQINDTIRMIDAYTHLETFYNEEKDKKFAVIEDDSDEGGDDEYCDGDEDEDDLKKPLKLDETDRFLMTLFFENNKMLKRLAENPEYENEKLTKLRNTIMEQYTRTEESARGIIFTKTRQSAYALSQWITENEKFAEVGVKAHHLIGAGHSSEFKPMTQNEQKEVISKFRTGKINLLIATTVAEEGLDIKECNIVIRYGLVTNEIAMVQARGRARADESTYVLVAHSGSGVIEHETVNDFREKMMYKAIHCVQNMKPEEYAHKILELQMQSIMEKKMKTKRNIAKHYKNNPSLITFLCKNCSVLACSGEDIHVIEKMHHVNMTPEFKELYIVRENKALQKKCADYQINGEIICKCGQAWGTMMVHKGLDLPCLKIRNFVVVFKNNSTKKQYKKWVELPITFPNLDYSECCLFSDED

[4] = target: T2, RIG-I (tagged, transfected) (UniProt O95786); assay: co-IP
T2 sequence: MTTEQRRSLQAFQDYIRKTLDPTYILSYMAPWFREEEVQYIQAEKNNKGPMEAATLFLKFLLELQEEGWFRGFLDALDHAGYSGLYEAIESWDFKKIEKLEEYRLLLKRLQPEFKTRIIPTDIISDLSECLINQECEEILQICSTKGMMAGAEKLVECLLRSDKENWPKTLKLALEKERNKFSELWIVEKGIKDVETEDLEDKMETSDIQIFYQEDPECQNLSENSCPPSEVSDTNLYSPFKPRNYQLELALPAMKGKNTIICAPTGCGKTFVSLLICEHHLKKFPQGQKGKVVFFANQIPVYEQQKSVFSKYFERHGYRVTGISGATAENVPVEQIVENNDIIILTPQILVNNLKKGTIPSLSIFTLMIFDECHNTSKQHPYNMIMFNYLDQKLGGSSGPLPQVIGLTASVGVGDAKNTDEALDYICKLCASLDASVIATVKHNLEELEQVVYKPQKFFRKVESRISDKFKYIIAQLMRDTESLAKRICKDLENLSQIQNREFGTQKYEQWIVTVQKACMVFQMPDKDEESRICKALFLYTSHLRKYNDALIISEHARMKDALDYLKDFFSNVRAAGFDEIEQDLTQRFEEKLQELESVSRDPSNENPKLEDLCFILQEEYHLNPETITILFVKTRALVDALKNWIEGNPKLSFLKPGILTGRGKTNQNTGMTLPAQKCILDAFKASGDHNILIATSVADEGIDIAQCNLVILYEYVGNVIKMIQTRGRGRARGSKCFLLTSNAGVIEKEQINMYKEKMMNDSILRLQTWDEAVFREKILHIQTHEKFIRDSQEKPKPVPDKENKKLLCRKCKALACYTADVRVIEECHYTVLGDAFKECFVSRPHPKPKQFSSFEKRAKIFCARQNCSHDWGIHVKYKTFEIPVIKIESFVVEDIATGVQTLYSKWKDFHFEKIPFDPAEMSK

[5] = target: T3, TBK1 (tagged, transfected, co-IP) (UniProt Q9UHD2); assay: co-IP
T3 sequence: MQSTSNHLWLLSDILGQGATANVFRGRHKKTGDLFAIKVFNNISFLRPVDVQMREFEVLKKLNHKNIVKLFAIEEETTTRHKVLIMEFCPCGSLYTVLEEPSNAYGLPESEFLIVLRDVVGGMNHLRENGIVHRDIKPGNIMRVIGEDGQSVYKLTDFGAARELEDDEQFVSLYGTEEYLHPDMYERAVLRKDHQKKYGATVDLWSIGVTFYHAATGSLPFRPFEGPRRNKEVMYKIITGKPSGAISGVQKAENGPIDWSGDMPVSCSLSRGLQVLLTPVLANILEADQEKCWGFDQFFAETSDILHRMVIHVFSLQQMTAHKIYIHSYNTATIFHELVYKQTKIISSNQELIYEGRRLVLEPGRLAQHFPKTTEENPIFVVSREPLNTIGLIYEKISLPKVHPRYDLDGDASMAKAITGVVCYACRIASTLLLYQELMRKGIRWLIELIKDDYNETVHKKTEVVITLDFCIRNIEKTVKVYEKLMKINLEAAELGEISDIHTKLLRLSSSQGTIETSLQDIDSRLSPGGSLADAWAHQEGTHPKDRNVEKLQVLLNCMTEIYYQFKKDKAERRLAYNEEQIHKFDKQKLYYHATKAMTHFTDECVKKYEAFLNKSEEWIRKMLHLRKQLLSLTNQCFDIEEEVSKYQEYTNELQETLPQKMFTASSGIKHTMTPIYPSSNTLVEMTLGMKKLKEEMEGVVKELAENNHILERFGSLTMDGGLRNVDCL

[6] = target: MAVS (tagged, transfected) (UniProt Q7Z434); assay: co-IP

Row | Substance | binding [1] | binding [2] | binding [3] | binding [4] | binding [5] | binding [6]
1 | Flag-tagged M (HEK293 cells expressing it) (from UniProt P0DTC5 1-222) | binds |  |  |  |  | 
2 | SARS-CoV-2 membrane glycoprotein M (tagged, transfected) (from UniProt P0DTC5 1-222) |  | binds | no binding | no binding | no binding | binds
